# According to PMC6919601, “Identification of Plasmodium dipeptidyl aminopeptidase allosteric inhibitors by high throughput screening” (PLoS ONE, 2019):
# About 230 (0.21%) of roughly 110,000 compounds showed an effect of 50% or more. The list shows a part of the results.
# Target: DPAP1 (Plasmodium falciparum, UniProt Q8IIJ9)
# Experiment: primary screen, percent inhibition; read by cleavage of a fluorogenic dipeptide substrate; higher = more effect of the substance
# Parameters: species or system P. falciparum D10 trophozoite lysates; single well
# 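Further: 30 min substrate incubation versus DMSO and 10 µM JCP410 controls.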
# Chain of DPAP1 (Q8IIJ9 whole entry, looked up): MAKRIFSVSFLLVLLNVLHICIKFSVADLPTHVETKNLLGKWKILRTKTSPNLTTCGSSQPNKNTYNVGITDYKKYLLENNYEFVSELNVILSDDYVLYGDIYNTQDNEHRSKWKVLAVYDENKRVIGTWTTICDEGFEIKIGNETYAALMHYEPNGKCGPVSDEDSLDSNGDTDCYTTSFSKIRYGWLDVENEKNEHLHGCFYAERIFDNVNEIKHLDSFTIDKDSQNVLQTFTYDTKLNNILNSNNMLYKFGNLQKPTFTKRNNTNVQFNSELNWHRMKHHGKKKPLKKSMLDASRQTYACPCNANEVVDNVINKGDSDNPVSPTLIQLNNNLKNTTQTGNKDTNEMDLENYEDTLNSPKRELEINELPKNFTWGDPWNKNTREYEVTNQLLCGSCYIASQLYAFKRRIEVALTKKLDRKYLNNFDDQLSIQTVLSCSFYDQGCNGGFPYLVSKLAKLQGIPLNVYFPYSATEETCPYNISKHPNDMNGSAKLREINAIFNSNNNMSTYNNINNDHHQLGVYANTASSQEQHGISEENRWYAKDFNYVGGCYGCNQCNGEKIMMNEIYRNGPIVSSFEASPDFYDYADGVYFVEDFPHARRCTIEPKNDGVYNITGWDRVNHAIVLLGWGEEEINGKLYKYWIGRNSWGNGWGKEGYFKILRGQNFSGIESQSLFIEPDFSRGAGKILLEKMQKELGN
row,Compound,% Inhibition @ 10 uM
1,COc1ccccc1CNC(=O)CCn1cnc2onc(-c3ccc(F)cc3)c2c1=O,-1.97%
2,COc1ccc(S(=O)(=O)N(C(C)=O)c2ccc3oc4c(c3c2)CCCC4)cc1,-15.4%
3,COc1ccc(OC)c(S(=O)(=O)N2CC=C(c3c(C)[nH]c4ccccc34)CC2)c1,3.76%
4,CCOC(=O)C1=C(CS(=O)(=O)c2ccccc2)NC(=O)NC1c1cccc(Cl)c1 (stereo not drawn),-2.16%
5,COc1ccc(-c2csc(/C(C#N)=C/c3ccccc3[N+](=O)[O-])n2)cc1,6.11%
6,COc1ccc(CCNC(=O)Cn2nnc(-c3ccc(OCc4ccccc4F)cc3)n2)cc1OC,-0.703%
7,COc1cc(OC)cc(C(=O)n2nc(C)c(-c3ccccc3)c2N)c1,-0.703%
8,CCN(CC)S(=O)(=O)c1ccc(NC(=O)c2ccc(Br)o2)cc1,-1.06%
9,CSc1nc2c(ccc3ccccc32)o1,-0.215%
10,COC(=O)C1=C(C)N(C)C(=O)NC1c1cc(OC)ccc1OC (stereo not drawn),3.15%
11,Cc1c2cnn(CC(=O)NCCCN(C)C3CCCCC3)c(=O)c2c(C)n1Cc1ccccc1F,-0.447%
12,N=C(NOC(=O)Cc1ccc(Cl)cc1)c1ccncc1,3.66%
13,Cc1ccc(C2CC(=O)NC(SCC(=O)N3CCCC3)=C2C#N)cc1 (stereo not drawn),0.983%
14,O=C(CCC(=O)Nc1ccc2ccccc2c1)Nc1ccc2ccccc2c1,-4.6%
15,CCOc1ccc(C(CC(=O)O)NC(C)=O)cc1 (stereo not drawn),1.62%
16,CCn1cc(CCC(=O)NCCN2CCOCC2)c2ccccc21,3.28%
17,Cc1cc(C)c2c3c(sc2n1)C1(CCCCC1)C(C#N)=C(N)O3,13.7%
18,CNc1oc(/C=C/c2ccc(OC)c(OC)c2)nc1C#N,0.895%
19,COc1ccc(CN2CC(C(=O)NCC3CCCO3)CC2=O)cc1 (stereo not drawn),-1.21%
20,COc1ccc(C(=O)c2sc3nc4c(c(-c5cccs5)c3c2N)CN(C)CC4)cc1,-3.46%
21,COC(=O)c1cn(CC(=O)N2CCOCC2)c2ccccc12,1.62%
22,O=C(NCc1cccc2ccccc12)C12CC3CC(CC(C3)C1)C2,3.39%
23,Cc1cc(C)c(C)c(S(=O)(=O)N2CC(C)OC(C)C2)c1C (stereo not drawn),-4.4%
24,Cc1c(C(=O)NCc2cccnc2)oc2ccc3c(c12)C(=O)CC1(CCC(C)CC1)O3 (stereo not drawn),-1.08%
25,CN1C(=O)/C(=C/c2cc3c(cc2Cl)OCO3)S/C1=N/c1ccc(C(=O)O)cc1,4.3%

row,Compound,% Inhibition @ 10 uM
1,CN1CCN(C(=O)CCc2nc(-c3ccc(Cl)cc3)no2)CC1,-10.9%
2,COc1ccc(CN2CCSCC2)c(OC)c1,-3.71%
3,CC1=C(c2ccc(C)c(C)c2)S(=O)(=O)N=C1NC1CCCCCC1,-4.68%
4,CCOC(=O)c1ccc2nc(C(F)(F)F)nc(NCCCN3CCOCC3)c2c1,-2.91%
5,Cc1ccsc1CCNC(=O)C1CCC(C/N=c2/c(N3CCOCC3)c(O)c2=O)CC1 (stereo not drawn),5.91%
6,Clc1ccc(Cl)c(OCCCN2CCCCC2)c1,-4.8%
7,C=CCn1c(SCC(=O)NC2CCCCC2)nnc1-c1ccc(OC)cc1,-11.4%
8,CCSC1=N/C(=C\c2ccc(C(C)C)cc2)C(=O)S1,1.91%
9,Oc1ccc(Cl)cc1C(C#Cc1ccccc1)N1CCOCC1 (stereo not drawn),-3.77%
10,O=C(Nc1sc2c(c1C(=O)NC1CCCCC1)CCCC2)c1ccccc1,1.39%
11,Cc1ccc(Cn2nnc3c(=O)n(CC(=O)NCc4ccco4)cnc32)cc1,2.65%
12,COc1ccc(Cn2c(SCC(=O)N3CCCC3)nc3c(sc4cccc(F)c43)c2=O)cc1,5.74%
13,CCc1nc2ccccc2c(NC(=O)CN2CCN(C(=O)c3ccco3)CC2)c1C,0.266%
14,COc1cccc(CC2=NOC(C(=O)O)C2)c1 (stereo not drawn),-4.11%
15,Cc1ccc(NC(=O)C(C)N2C(=O)c3ccccc3C2=O)cc1C (stereo not drawn),-2.73%
16,CN1C(=O)C(=Cc2ccc(N3CCCCC3)o2)C(=O)N(C)C1=O,-6.6%
17,Cc1cccc(-n2c(C)cc(/C=C3\C(=N)N4N=C(S(C)(=O)=O)SC4=NC3=O)c2C)c1,52.6%
18,O=C(Nc1ccc2ccccc2c1)c1cccc(Cl)c1,-1.48%
19,CCN(CC)CC(O)CN1c2ccccc2Sc2ccccc21 (stereo not drawn),3.53%
20,CCc1ccc(NS(=O)(=O)c2ccc(F)cc2)cc1,-1.45%
21,O=C(O)CCC(=O)N1CCN(C(=O)c2ccco2)CC1,4.73%
22,Cc1cccc(-c2nc(CS(=O)CC(=O)NCCN(Cc3ccccc3)C(C)C)c(C)o2)c1 (stereo not drawn),-3.08%
23,COc1ccc(C2SCCN2S(=O)(=O)c2ccc(C)c(C)c2)cc1 (stereo not drawn),3.35%
24,COC(=O)c1cc2ccsc2n1Cc1ccc(F)cc1Cl,-8.02%
25,CCOC(=O)C1=C(C)N=C(SC)N(C)C1c1ccccc1 (stereo not drawn),-2.56%

row,Compound,% Inhibition @ 10 uM
1,Fc1ccc(-c2nnc3ccc(N4CCN(C(=S)NC5CCCCC5)CC4)nn23)cc1,-3.08%
2,COC(=O)c1c(NC(=O)c2ccccc2F)sc2c1CCCC2,-6.74%
3,COc1coc(CSC(=S)N(C)C)cc1=O,6.18%
4,Fc1ccc(CN2CCN(c3ccccc3Cl)CC2)c(F)c1,-3.82%
5,N#Cc1ccccc1Sc1ccccc1C(=O)N1CCN(Cc2ccc3c(c2)OCO3)CC1,2.37%
6,CC(C)C(=O)c1c(O)oc2ccccc2c1=O,0.238%
7,CC(=O)C1=C(C)N=c2s/c(=C/c3ccc(N(C)C)cc3)c(=O)n2C1c1ccc(N(C)C)cc1 (stereo not drawn),-1.65%
8,CCOc1ccccc1NC(=O)Cn1nc(C(F)(F)F)cc1C1CC1,3.48%
9,c1ccc(-n2nnnc2CSc2nnc3sc4ccccc4n23)cc1,2%
10,C=CCc1cc(/C=C2\C(=N)N3C(C)=CSC3=NC2=O)cc(OC)c1OCCOc1ccccc1,-5.15%
11,O=C1c2cccnc2C(=O)N1CCc1ccc(S(=O)(=O)NCc2cccnc2)cc1,3.85%
12,COc1ccc(-c2cc(-c3cccs3)nc3sc(C(=O)NC(C)C)c(N)c23)cc1,3.39%
13,CC(C)CC(NC(=O)c1ccc(NC(=O)NCc2ccco2)cc1)C(=O)NCC#N (stereo not drawn),-3.97%
14,CC(=O)Nc1nc(C)nc(C)c1C(C)=O,3.76%
15,CC(=O)Nc1ccc2c(c1)C1C=CCC1C(c1ccc(F)cc1)N2 (stereo not drawn),0.177%
16,CCCCCCCCNC(=O)c1ccc(NC(C)=O)cc1,-9%
17,N#C/C(=C/c1ccc(F)cc1)c1nc(-c2ccc(Br)cc2)cs1,-3.04%
18,CCOc1cc(/C=C2/C(=N)N3OC(C)=CC3=NC2=O)ccc1OC(C)c1ccccc1 (stereo not drawn),-1.43%
19,Cc1ccc(C)c(-n2nnc(-c3nc(-c4ccncc4)no3)c2N)c1,2.71%
20,Nc1c(C(=O)Nc2nc(-c3ccccc3)cs2)sc2nc3c(cc12)CCCCC3,3.8%
21,COc1ccc(CCNC(=O)c2cc(-c3ccc4c(c3)OCO4)on2)cc1OC,-7.15%
22,COC(=O)c1ccc(NC(=O)c2ccc(Cl)cc2Cl)cc1,4.66%
23,O=c1c2ccccc2nc(CNCC2CCCO2)n1-c1ccc(F)cc1 (stereo not drawn),0.245%
24,Cc1nc2sccn2c(=O)c1S(=O)(=O)N1CCc2ccccc2C1,0.857%
25,CCCCN(C)C(=O)c1cnn(-c2ccc(C)cc2)c1-n1cccc1,-0.231%

row,Compound,% Inhibition @ 10 uM
1,CC(=O)NC1=NN(C(C)=O)C2(CCSc3ccc4ccccc4c32)S1 (stereo not drawn),2.69%
2,CCN1CCN(c2ncnc3onc(-c4ccc(Cl)cc4)c23)CC1,-3.95%
3,CC(C)Cn1c(=O)c2sccc2n2c(CCCC(=O)N3CCC(N4CCCCC4)CC3)nnc12,5.95%
4,CC(=O)Nc1ccc(NC(=O)CN(c2ccc(Cl)cc2C)S(=O)(=O)c2ccccc2)cc1,-1.82%
5,COc1cc2nc(NCCCOC(C)C)n3nc(-c4ccccc4)nc3c2cc1OC,0.981%
6,COc1ccccc1C(=O)NC1CCC(NC(=O)c2ccccc2OC)CC1 (stereo not drawn),4.05%
7,O=C(Nc1ccc(-c2nc3cc(NC(=O)c4ccccc4)ccc3[nH]2)cc1)c1ccccc1,8.76%
8,CCCCN1C(=O)c2[nH]nc(-c3ccccc3O)c2C1c1ccc(F)cc1 (stereo not drawn),0.366%
9,COc1ccc(C)cc1N(CC(=O)NCc1ccccn1)S(=O)(=O)c1ccc(C)cc1,-7.58%
10,C=C(C)Cn1c(C(C)NC(=O)COC)nc2ccccc21 (stereo not drawn),-2.74%
11,COC(=O)c1sc2nc3c(c(-c4ccccc4Cl)c2c1N)CCCC3,2.8%
12,CCC(CC)COC(=O)C1=C(C)NC(=O)NC1c1ccc(Cl)c(Cl)c1 (stereo not drawn),-3.6%
13,Cc1cccn2cc(CNC(=O)c3ccco3)nc12,-1.72%
14,CCOc1ccc(Cn2nnc3c(O)nc(C4CCN(C(=O)c5cccc(Cl)c5)CC4)nc32)cc1,-1.37%
15,CC(=O)c1c(C)[nH]c(C(=O)N2CCC3(CC2)OCCO3)c1C,1.23%
16,Cc1cc(C)c2c(n1)SCC(=O)N2CCCC(=O)NCCCOC(C)C,-9.91%
17,Nc1c(-c2nc(-c3ccccc3)cs2)c2ccccn2c1C(=O)c1ccccc1,1%
18,COc1ccc(CNc2cc(C)cc(C)c2)cc1Br,1.84%
19,O=C(O)c1cc2ccccc2nc1CSc1ccccc1,-1.17%
20,Cc1cc2nc(O)c(O)nc2cc1S(=O)(=O)N(C)C1CCCCC1,-1.43%
21,CC(=O)NC1C(O)CC2C3CC=C4CC(O)CCC4(C)C3CCC21C (stereo not drawn),5.2%
22,Cc1ccc(C(NC(N)=O)c2ccccc2C)cc1 (stereo not drawn),5.04%
23,COc1ccc(OC)c(NC(=O)CSc2nc3ccc(N)cc3s2)c1,-4.6%
24,CC(C(=O)NCc1cccc(Cl)c1)n1c2ccccc2c2cnn(C)c(=O)c21 (stereo not drawn),-0.281%
